Test results taken from PMC9911399, “Two distinct binding modes provide the RNA-binding protein RbFox with extraordinary sequence specificity”.
Where a chain is given by its changes, count along the chain named. The list shows a part of the results.

T1: RBFOX1 RRM RbFoxmut (Fox-RRM*) (Homo sapiens, UniProt Q9NWB1 109-208, R118D;E147R;N151S;E152T)
T1 sequence: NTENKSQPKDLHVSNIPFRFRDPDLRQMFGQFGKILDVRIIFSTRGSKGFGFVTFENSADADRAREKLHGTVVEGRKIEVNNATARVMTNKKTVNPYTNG

B1: CGUAGGC (DNA:RNA)
RNA: GGGAGACCGGAAUUCAGAUUGUCCCGUAGGCUUAAAUCCCGUCGUAGCCACCA
DNA 1: CAATCTGAATTCCGGTCTCCC
DNA 2: TGGTGGCTACGACGGGATT
B2: CUACUCC (DNA:RNA)
RNA: B1 RNA with G26U, U27A, A28C, G29U, G30C
DNA 1: CAATCTGAATTCCGGTCTCCC
DNA 2: TGGTGGCTACGACGGGATT
B3: CACUGUA (DNA:RNA)
RNA: B1 RNA with G26A, U27C, A28U, G30U, C31A
DNA 1: CAATCTGAATTCCGGTCTCCC
DNA 2: TGGTGGCTACGACGGGATT
B4: GCUGUCG (DNA:RNA)
RNA: B1 RNA with C25G, G26C, A28G, G29U, G30C, C31G
DNA 1: CAATCTGAATTCCGGTCTCCC
DNA 2: TGGTGGCTACGACGGGATT
B5: CAAAAUG (DNA:RNA)
RNA: B1 RNA with G26A, U27A, G29A, G30U, C31G
DNA 1: CAATCTGAATTCCGGTCTCCC
DNA 2: TGGTGGCTACGACGGGATT
B6: CGUUACA (DNA:RNA)
RNA: B1 RNA with A28U, G29A, G30C, C31A
DNA 1: CAATCTGAATTCCGGTCTCCC
DNA 2: TGGTGGCTACGACGGGATT
B7: GUUUUUU (DNA:RNA)
RNA: B1 RNA with C25G, G26U, A28U, G29U, G30U, C31U
DNA 1: CAATCTGAATTCCGGTCTCCC
DNA 2: TGGTGGCTACGACGGGATT
B8: CCUGUGU (DNA:RNA)
RNA: B1 RNA with G26C, A28G, G29U, C31U
DNA 1: CAATCTGAATTCCGGTCTCCC
DNA 2: TGGTGGCTACGACGGGATT
B9: AGGUCUA (DNA:RNA)
RNA: B1 RNA with C25A, U27G, A28U, G29C, G30U, C31A
DNA 1: CAATCTGAATTCCGGTCTCCC
DNA 2: TGGTGGCTACGACGGGATT
B10: ACCCUCA (DNA:RNA)
RNA: GGGAGACCGGAAUUCAGAUUGUCCACCCUCAUUAAAUCCCGUCGUAGCCACCA
DNA 1: CAATCTGAATTCCGGTCTCCC
DNA 2: TGGTGGCTACGACGGGATT
B11: GCCGUUG (DNA:RNA)
RNA: B10 RNA with A25G, C28G, C30U, A31G
DNA 1: CAATCTGAATTCCGGTCTCCC
DNA 2: TGGTGGCTACGACGGGATT
B12: CCUCACG (DNA:RNA)
RNA: B10 RNA with A25C, C27U, U29A, A31G
DNA 1: CAATCTGAATTCCGGTCTCCC
DNA 2: TGGTGGCTACGACGGGATT
B13: CAGUCUG (DNA:RNA)
RNA: B1 RNA with G26A, U27G, A28U, G29C, G30U, C31G
DNA 1: CAATCTGAATTCCGGTCTCCC
DNA 2: TGGTGGCTACGACGGGATT
B14: CCGAGCA (DNA:RNA)
RNA: B10 RNA with A25C, C27G, C28A, U29G
DNA 1: CAATCTGAATTCCGGTCTCCC
DNA 2: TGGTGGCTACGACGGGATT
B15: AUGAUAA (DNA:RNA)
RNA: B10 RNA with C26U, C27G, C28A, C30A
DNA 1: CAATCTGAATTCCGGTCTCCC
DNA 2: TGGTGGCTACGACGGGATT
B16: UAGCGGA (DNA:RNA)
RNA: B10 RNA with A25U, C26A, C27G, U29G, C30G
DNA 1: CAATCTGAATTCCGGTCTCCC
DNA 2: TGGTGGCTACGACGGGATT
B17: UGUAGCA (DNA:RNA)
RNA: B1 RNA with C25U, G30C, C31A
DNA 1: CAATCTGAATTCCGGTCTCCC
DNA 2: TGGTGGCTACGACGGGATT
B18: UGUAAGG (DNA:RNA)
RNA: B1 RNA with C25U, G29A, C31G
DNA 1: CAATCTGAATTCCGGTCTCCC
DNA 2: TGGTGGCTACGACGGGATT
B19: UGAGCCU (DNA:RNA)
RNA: B10 RNA with A25U, C26G, C27A, C28G, U29C, A31U
DNA 1: CAATCTGAATTCCGGTCTCCC
DNA 2: TGGTGGCTACGACGGGATT
B20: GGACUAG (DNA:RNA)
RNA: B10 RNA with A25G, C26G, C27A, C30A, A31G
DNA 1: CAATCTGAATTCCGGTCTCCC
DNA 2: TGGTGGCTACGACGGGATT

target: T1, RBFOX1 RRM RbFoxmut (Fox-RRM*); assay: EMSA; HiTS-Eq, 1 nM pool, 10 min; buffer printed only for the single-RNA assays: 10 mM Tris pH 7.5, 150 mM NaCl, 3.4 mM EDTA, 0.001% NP-40, 30 C; details: tags: His6 N-terminal (pET28a); label: 5' 32P
How it was run: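 Purified RbFox RRM (wild type or mutant) was equilibrated for 10 min in 50 µL with 1 nM of a 5′-radiolabelled pool of RNA with 7 randomized nucleotides, its flanks annealed to DNA oligonucleotides, across increasing protein concentrations. Free RNA was separated by 8% native PAGE, excised, reverse-transcribed, PCR-barcoded and sequenced on an Illumina HiSeq 2500. Relative association constants came from read-count changes of each variant against the control reaction, normalised to the cognate motif.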

**Q.** Which binding signal does the source give for B1 here?
**A.** 0.0943 KA relative to UGCAUGU

**Q.** Which binding signal does the source give for B2 here?
**A.** 0.0575 KA relative to UGCAUGU

**Q.** B3 was tested. Which binding signal did it give?
**A.** 0.209 KA relative to UGCAUGU

**Q.** For B4, which binding signal is on record?
**A.** 0.11 KA relative to UGCAUGU

**Q.** With B5 as the binder, how does the binding signal read?
**A.** 0.116 KA relative to UGCAUGU

**Q.** Which binding signal does the source give for B6 here?
**A.** 0.0878 KA relative to UGCAUGU

**Q.** How did the binding signal turn out when B7 was run?
**A.** 0.0932 KA relative to UGCAUGU

**Q.** With B8 as the binder, how does the binding signal read?
**A.** 0.142 KA relative to UGCAUGU

**Q.** With B9 as the binder, how does the binding signal read?
**A.** 0.0884 KA relative to UGCAUGU

**Q.** Which binding signal does the source give for B10 here?
**A.** 0.108 KA relative to UGCAUGU

**Q.** How did the binding signal turn out when B11 was run?
**A.** 0.103 KA relative to UGCAUGU

**Q.** For B12, which binding signal is on record?
**A.** 0.102 KA relative to UGCAUGU

**Q.** Which binding signal does the source give for B13 here?
**A.** 0.0891 KA relative to UGCAUGU

**Q.** For B14, which binding signal is on record?
**A.** 0.128 KA relative to UGCAUGU

**Q.** For B15, which binding signal is on record?
**A.** 0.111 KA relative to UGCAUGU

**Q.** For B16, which binding signal is on record?
**A.** 0.0808 KA relative to UGCAUGU

**Q.** How did the binding signal turn out when B17 was run?
**A.** 0.172 KA relative to UGCAUGU

**Q.** For B18, which binding signal is on record?
**A.** 0.0691 KA relative to UGCAUGU

**Q.** How did the binding signal turn out when B19 was run?
**A.** 0.081 KA relative to UGCAUGU

**Q.** B20 was tested. Which binding signal did it give?
**A.** 0.0756 KA relative to UGCAUGU
